Assay results from the supplement of paper PMC10126150.
Sequences with one replicate were seen in a single cluster, so their values are uncertain.

Test system: ATP
Assay: switch fluorescence ratio, 500 uM ATP over buffer (Cy3 cluster intensity, sum of 5 cycles each) (fold (ratio)); higher = stronger signal-on switching upon ATP binding; sequences stand for … in TCGTCGGCAGCGTCAGATGTGTATAAGAGACAGTTTTTTTTTTTTTTTTTTTTTTTTT…TC
Settings: aptamer strand: ATP DNA aptamer (quencher-CACCTGGGGGAGTATTGCGGAGGAAGG + anchor), 100 nM annealed; ATP concentration: 500 uM; one replicate
How it was run: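 Imaging in selection buffer was followed by imaging after 15 min with 500 uM ATP at 22 °C, for Cy3-labelled switching-strand clusters annealed to 100 nM quencher-labelled ATP aptamer on a modified Illumina MiSeq flow-cell. Five of these buffer/ATP cycles ran, separated by NaOH stripping and re-annealing. The fluorescence ratio per cluster is summed target-cycle over summed buffer-cycle Cy3 intensity, averaged per switch-domain sequence; clusters outside 100-1000 RFU were removed.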
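Further: ATP exposure 15 min at 22 °C before imaging.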

| Sequence | switch fluorescence ratio |
| --- | --- |
| GGCAGCTA | 0.988 |
| GGATTAGGAT | 0.978 |
| CGAGTAAAAG | 1.03 |
| CCACTAGCGA | 3.58 |
| GGAGCGGGAC | 3.82 |
| ATAGGTTGCT | 0.981 |
| GCAGTGGAGA | 1.04 |
| TGAATAACGA | 1.01 |
| AATGGTGGAG | 1.03 |
| GAGAGCTAGG | 0.944 |
| AATGTAGCTG | 1.04 |
| AAGGACGCGC | 0.974 |
| TAAACTCGAG | 0.989 |
| AGTCTAATAC | 1.91 |
| AGTGAACTGG | 1.03 |
| TTTTTTCCAG | 0.97 |
| AGGTCACATG | 1.03 |
| AGGCGGCTAT | 0.994 |
| CCTTTTGGAA | 1.01 |
| TTTTATAAA | 1.04 |
| ACCCTCAACC | 1.07 |
| GTGGAATGAT | 1.03 |
| AGTTGTGCGG | 1.02 |

| Sequence | switch fluorescence ratio |
| --- | --- |
| AAAGGCAGGT | 1.05 |
| ACGGTGGCGG | 1.01 |
| TAATGGTC | 0.891 |
| TGGCCAGGCG | 1.04 |
| CCGACAAGTT | 3.35 |
| CAAATGAAT | 1 |
| GCCAAAGTTG | 0.922 |
| TACATCGATG | 0.952 |
| CTCAGCTTTT | 1.41 |
| TTTGCGCTAT | 2.55 |
| ATCCCATTTT | 1.04 |
| GCTGACACGA | 1.05 |
| GTTTTCTTCC | 1.1 |
| AGTGATCGTC | 0.931 |
| ACGTTGTGTG | 1 |
| AACCTCATAA | 0.977 |
| GAGATCTAAA | 0.973 |
| AGGGCCCCCT | 1.39 |
| AAATCCTCTG | 1.16 |
| TTTGTGTGCT | 0.957 |
| CTCGTCAATG | 1.49 |
| ATGAGGGA | 1.04 |
| TACAAAGAAT | 1.03 |

| Sequence | switch fluorescence ratio |
| --- | --- |
| AGTTTGCATC | 0.991 |
| AGCTTGGTTC | 1.03 |
| ATAGTAGCTT | 0.98 |
| ATTATCCTG | 1.06 |
| AGCTTAAAGG | 0.975 |
| GTTGATTCCC | 0.979 |
| TGACAGAGCA | 1.32 |
| AGCGAGGCCC | 0.985 |
| TAGGAGAAAG | 0.975 |
| AATCTAAACT | 1.03 |
| GGCATAGCTA | 1.01 |
| TTGTAGTCGC | 1.01 |
| AGCGGAGGTG | 0.866 |
| GAATTTTAAA | 0.973 |
| CAAAGTATAA | 0.99 |
| AATCGCCCTT | 0.988 |
| GGCTAGCTAG | 1.03 |
| CGACTCTAG | 1.03 |
| CTGGTTATTA | 1.03 |
| CACAGTAGAA | 1.04 |
| AACCAGAGCG | 0.998 |
| TGAGTCTCCT | 1.05 |
| TGATTGATGG | 0.957 |

| Sequence | switch fluorescence ratio |
| --- | --- |
| TCACATGCCG | 0.993 |
| AGTAACTATT | 1.07 |
| TTGGTAGGT | 1.04 |
| GGAGTAACCA | 0.982 |
| AATTACCGTT | 1.03 |
| GAAGCAAGTG | 1.57 |
| GTGTAGGTGT | 1.14 |
| GAGCGGCGTC | 1.13 |
| ATAATGTGT | 0.963 |
| CGTGAAAAT | 0.993 |
| CTTGTCAGGT | 1.01 |
| TTCAGCTCAT | 0.986 |
| AATTCTGTTT | 1.03 |
| GTTTCTATAA | 1.01 |
| TATATGCCGA | 0.967 |
| GATCAAACAA | 1.07 |
| CCTGTAGCG | 1.14 |
| TTTATGGTGA | 0.981 |
| GGTTAAATA | 0.955 |
| CGATCCAGAT | 0.968 |
| ACCAAGTGCG | 1.01 |
| TGACTGGCAC | 1.18 |
| ACCTAGGGCG | 0.989 |

| Sequence | switch fluorescence ratio |
| --- | --- |
| GGTAGAGAGT | 0.946 |
| CGTCCAAGGT | 1.12 |
| CTACAGTCTT | 1.02 |
| GTAGGGGCAG | 0.991 |
| ATCCAGATCG | 1.04 |
| TATCCAATGT | 1.02 |
| ACGTACGTCA | 1.23 |
| CTTTCAGCCA | 0.986 |
| GACCTGTGA | 0.986 |
| GAGCCACCCA | 0.998 |
| GGCGTCCGCT | 1.02 |
| CTTTCAAGGG | 0.968 |
| TCAATGAGGC | 1.08 |
| GTGCTAAGAT | 1.03 |
| GTATAGTGTC | 0.852 |
| TTGTGTGGTC | 0.961 |
| ACCTGGACAT | 0.995 |
| CTTTTCGAGA | 1.05 |
| GTGTGGGAT | 0.993 |
| GTATAAGAAG | 1.06 |
| GTATTGAGGC | 0.915 |
| AGAGTAGTCT | 1.02 |
| ATTAGGTTTT | 1.05 |

| Sequence | switch fluorescence ratio |
| --- | --- |
| CTGATTCATG | 0.976 |
| AAACAAGGCT | 1.05 |
| GTTGGCGTAG | 1.03 |
| GTTATCCATT | 1.01 |
| GCTGCGGACG | 0.986 |
| GGGGTACTGA | 1.03 |
| TGTGTTGATA | 1.01 |
| ATACCACATG | 1.05 |
| GATAATAGCA | 0.995 |
| AGATACTACG | 1.06 |
| TTAAGAGGAC | 1.05 |
| GAGATATGAT | 0.998 |
| CGGCATTCTG | 0.985 |
| CGCGTCATAA | 1.11 |
| CATGATCGAG | 1.03 |
| AGGCCCAAGA | 1.04 |
| TTGGATCGTT | 0.987 |
| ATATGCCTTC | 0.961 |
| TATCACGGGG | 1.03 |
| AACCCTAGTT | 1.02 |
| CCGGGGGATA | 1.05 |
| TAAACTCCTA | 1.06 |
| GGCTTCCTTT | 1.18 |

| Sequence | switch fluorescence ratio |
| --- | --- |
| ACGCGTAGCC | 1.01 |
| GAAAATCGAA | 1.36 |
| ATTTGGCCAA | 1.01 |
| GACGATGGCT | 1.07 |
| GAAGGTTTTT | 1.01 |
| TAGGGCAACA | 1.01 |
| ACGGCAAGTA | 1.04 |
| GTGAATTTAT | 0.947 |
| TAGTTCTCCG | 1.02 |
| AGAGTATAAA | 1.08 |
| GGGGATGCCT | 0.995 |
| GATATGATGG | 1 |
| AGCGTAGTAG | 1.02 |
| TTAGCGAAT | 1.04 |
| GGCAAATACG | 1.24 |
| GGCGCTTTAC | 3.96 |
| ACGCCACG | 1.49 |
| ACATGGCGGA | 1.02 |
| CTTGACCCGC | 1.51 |
